Laboratory results from PubChem BioAssay AID504333 (National Center for Advancing Translational Sciences (NCATS), 2011).
Screen size: about 360,000 compounds; about 16,000 (4.4%) were called active. Inconclusive means that the source gave no clear call. Such entries were picked first, then a sample of the others. Calls come from the whole dose curve; as a rule, active = well fitted inhibition curve with a large enough effect; inconclusive = small, poorly fitted or top-dose-only effect; inactive = no such curve, though single readings can be large or run the other way. Potencies of inconclusive entries are doubtful fits and often do not repeat.

target: Bromodomain adjacent to zinc finger domain protein 2B (Homo sapiens) (UniProt Q9UIF8); test: qHTS Assay for Inhibitors of BAZ2B; details: AlphaScreen BAZ2B-H3K14Ac peptide displacement; series mostly up to 114 µM; note: nearly all actives have a fitted effect of over 60% in size
Method in brief: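 BAZ2B 50 nM plus b-H3(5-23)K14Ac 50 nM, PBS pH 7.4/0.01% Tween-20, 30 min RT; compound added (max 110 uM), 30 min RT; streptavidin donor/Ni-chelate acceptor beads 10 ug/mL final, 20 min dark; AlphaScreen read.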
Potency is the fitted concentration of half-maximal effect; tags give direction and shape of the fitted curve.

Sequence of UniProt Q9UIF8 (Q9UIF8 whole entry, looked up, the tested form may be a part): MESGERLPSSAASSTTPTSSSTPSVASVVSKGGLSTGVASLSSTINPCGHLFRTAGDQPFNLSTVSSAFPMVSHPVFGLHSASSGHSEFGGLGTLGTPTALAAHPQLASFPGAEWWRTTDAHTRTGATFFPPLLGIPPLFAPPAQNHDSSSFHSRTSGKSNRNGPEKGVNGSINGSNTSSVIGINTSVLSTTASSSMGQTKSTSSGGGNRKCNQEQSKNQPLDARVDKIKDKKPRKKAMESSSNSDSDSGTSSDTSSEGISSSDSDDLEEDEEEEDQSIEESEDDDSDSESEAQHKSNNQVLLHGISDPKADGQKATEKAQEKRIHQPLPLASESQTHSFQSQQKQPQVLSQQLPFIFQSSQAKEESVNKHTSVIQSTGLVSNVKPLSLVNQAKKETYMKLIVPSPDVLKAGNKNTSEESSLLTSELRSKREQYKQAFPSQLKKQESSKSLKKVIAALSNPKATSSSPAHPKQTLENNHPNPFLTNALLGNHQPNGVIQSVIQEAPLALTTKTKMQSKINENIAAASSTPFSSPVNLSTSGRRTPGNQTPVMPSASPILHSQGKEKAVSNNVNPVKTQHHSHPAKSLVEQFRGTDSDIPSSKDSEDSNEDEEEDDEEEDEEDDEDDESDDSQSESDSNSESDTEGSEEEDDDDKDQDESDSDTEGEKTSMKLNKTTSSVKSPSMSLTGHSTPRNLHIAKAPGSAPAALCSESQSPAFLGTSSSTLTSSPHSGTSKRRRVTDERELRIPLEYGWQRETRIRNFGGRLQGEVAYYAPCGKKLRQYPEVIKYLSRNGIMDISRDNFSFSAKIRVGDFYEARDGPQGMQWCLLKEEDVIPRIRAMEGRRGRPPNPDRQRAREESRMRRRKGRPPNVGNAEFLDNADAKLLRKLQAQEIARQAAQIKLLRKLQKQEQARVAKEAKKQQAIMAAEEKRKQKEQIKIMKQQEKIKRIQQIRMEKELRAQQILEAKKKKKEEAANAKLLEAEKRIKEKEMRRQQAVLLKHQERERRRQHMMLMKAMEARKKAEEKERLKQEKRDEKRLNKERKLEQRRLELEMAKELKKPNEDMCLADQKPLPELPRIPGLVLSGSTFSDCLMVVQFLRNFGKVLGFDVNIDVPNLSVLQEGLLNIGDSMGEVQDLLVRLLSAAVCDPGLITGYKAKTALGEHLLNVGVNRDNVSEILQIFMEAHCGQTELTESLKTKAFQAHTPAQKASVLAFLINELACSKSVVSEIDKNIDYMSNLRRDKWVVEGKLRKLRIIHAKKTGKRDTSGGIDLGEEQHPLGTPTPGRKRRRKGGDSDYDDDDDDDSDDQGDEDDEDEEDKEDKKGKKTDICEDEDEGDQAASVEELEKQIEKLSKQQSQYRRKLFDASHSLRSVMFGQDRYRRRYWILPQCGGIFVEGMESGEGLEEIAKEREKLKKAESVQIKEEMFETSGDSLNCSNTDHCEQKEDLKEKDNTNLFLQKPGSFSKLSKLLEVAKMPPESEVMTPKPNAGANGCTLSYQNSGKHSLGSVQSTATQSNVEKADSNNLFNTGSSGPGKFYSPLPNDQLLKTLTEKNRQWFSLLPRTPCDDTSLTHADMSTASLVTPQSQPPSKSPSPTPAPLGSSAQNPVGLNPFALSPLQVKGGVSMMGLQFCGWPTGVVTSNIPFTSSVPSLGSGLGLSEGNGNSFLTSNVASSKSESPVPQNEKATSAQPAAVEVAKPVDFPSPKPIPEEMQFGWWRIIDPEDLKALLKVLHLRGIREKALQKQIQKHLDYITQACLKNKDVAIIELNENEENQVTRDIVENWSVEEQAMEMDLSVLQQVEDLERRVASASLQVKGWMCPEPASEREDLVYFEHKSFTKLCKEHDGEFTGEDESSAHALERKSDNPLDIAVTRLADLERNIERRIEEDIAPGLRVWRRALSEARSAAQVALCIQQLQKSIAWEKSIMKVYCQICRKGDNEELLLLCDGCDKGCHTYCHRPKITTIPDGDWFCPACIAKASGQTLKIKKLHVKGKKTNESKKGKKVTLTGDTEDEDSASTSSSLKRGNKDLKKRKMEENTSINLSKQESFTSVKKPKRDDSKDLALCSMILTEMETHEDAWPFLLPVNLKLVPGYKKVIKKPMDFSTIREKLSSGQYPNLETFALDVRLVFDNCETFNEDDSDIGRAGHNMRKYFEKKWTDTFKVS

SMILES | Potency
COc1cccc(/C(O)=C/C(=O)C(=O)Nc2ccc(S(=O)(=O)NC(C)=O)cc2)c1 | inconclusive: 79.4 µM [inhibitor, single point]
Cc1ccc(N2C(=O)C(CC(=O)Nc3ccc(F)cc3)N(CCC3=CCCCC3)C2=O)cc1 (configuration not stated) | inactive
COc1ccc(NC(=O)CN(C)C(=O)c2cc3c(s2)CCC3)cc1 | active: 6.31 µM
Cn1cnc2cc(NCc3ccccc3Cl)ccc21 | inactive
COc1ccccc1N1CCN(C2C(=O)c3ccccc3N2C(C)=O)CC1 (configuration not stated) | inactive
O=C(COc1ccc(F)cc1)Nc1ccc2nc(SCC(=O)N3CCCC3)sc2c1 | inconclusive: 79.4 µM [inhibitor, single point]
CCCCNC(=O)c1ccc(Cn2c(=S)[nH]c3c([nH]c4ccc(OC)cc43)c2=O)cc1 | inactive
CCOc1ccc(S(=O)(=O)NCC(c2ccc(N(C)C)cc2)N2CCCC2)cc1 (configuration not stated) | active: 35.5 µM
C/C(=N\NS(=O)(=O)c1cccc([N+](=O)[O-])c1)c1cc2ccccc2o1 | inconclusive: 56.2 µM [inhibitor, single point]
CCC(C(=O)N1CCCC1)n1nc(C)c2c(C)n(-c3ccccc3)nc2c1=O (configuration not stated) | inactive
COc1ccc(-c2csc(NC(=O)Cc3ccccc3F)n2)c(OC)c1 | inconclusive: 70.8 µM [inhibitor, single point]
COc1cccc(CN2CCCC(N3CCc4ccccc4C3)C2)c1O (configuration not stated) | inactive
Cc1ccc(NC(=O)COC(=O)COc2ccc(Cl)cc2C)c([N+](=O)[O-])c1 | inconclusive: 17.8 µM [inhibitor, full curve]
S=c1[nH]nc(-c2cnccn2)n1-c1ccccc1 | inconclusive: 89.1 µM [inhibitor, single point]
CC1CC2=C(NC(=S)NC2c2ccc(F)cc2)/C(=C/c2ccc(F)cc2)C1 (configuration not stated) | inconclusive: 25.1 µM [inhibitor, full curve, poor fit]
C=CCn1c(CCC(O)COCCC)n[nH]c1=S (configuration not stated) | inactive
Cn1c(=O)c(-c2cc(=O)[nH][nH]2)c(O)c2ccccc21 | active: 56.2 µM
Cc1csc(SCC(=O)c2c(N)n(C)c(=O)n(C)c2=O)n1 | inconclusive: 11.2 µM [inhibitor, single point]
CCOP(=O)(OCC)C(NC(=O)c1cc([N+](=O)[O-])cc([N+](=O)[O-])c1)C(F)(F)F (configuration not stated) | inconclusive: 56.2 µM [inhibitor, partial curve, poor fit]
COc1ccc(CN2CCCC(C(=O)N3CCCCC3)C2)cc1 (configuration not stated) | inconclusive: 79.4 µM [inhibitor, single point]
Cc1cccc(NS(=O)(=O)c2cccc(C(=O)NCCCN3CCOCC3)c2)c1 | inconclusive: 89.1 µM [inhibitor, single point]
O/N=C1\CCC\C1=C/c1ccco1 | inconclusive: 50.1 µM [inhibitor, partial curve]
COc1ccc(C(=O)/C(C#N)=N/Nc2cccc([N+](=O)[O-])c2)cc1 | active: 39.8 µM
CCOC(=O)c1sc(NS(=O)(=O)c2ccc(C)cc2)nc1C | inconclusive: 100 µM [inhibitor, single point]

SMILES | Potency
O=C(NC1CCCCCC1)c1ccc(Cl)c(S(=O)(=O)N2CCOCC2)c1 | inactive
COc1ccc(C(C)=O)cc1CSc1nncn1-c1ccccc1 | inactive
O=C(Cn1cc(SCc2cccc(F)c2)c2ccccc21)N1CCCC1 | inconclusive: 70.8 µM [inhibitor, single point]
COc1ccc(Nc2ccc([N+](=O)[O-])cc2[N+](=O)[O-])cc1 | active: 25.1 µM
CC(C)C(NC(N)=O)C(=O)NC1CCCCC1 (configuration not stated) | inactive
CCn1c(COc2ccccc2)nnc1SCC(=O)Nc1cc(OC)ccc1OC | inconclusive: 56.2 µM [inhibitor, partial curve]
O=[N+]([O-])c1ccc(-c2ccc(/C=N/Nc3nc(NCc4ccccc4)nc(N4CCOCC4)n3)o2)cc1 | inconclusive: 56.2 µM [inhibitor, partial curve]
COCCCNC(=S)NNC(=O)c1ccccn1 | active: 3.55 µM
N=C1/C(=C\c2ccc(OC(=O)c3ccco3)cc2)C(=O)N=C2SC(N3CCCCC3)=NN12 | inconclusive: 39.8 µM [inhibitor, full curve, poor fit]
O=C(O)c1ccc(NC(=O)c2ccccc2NC(=O)c2ccccc2Br)cc1 | inactive
Cc1c(NC(=S)NC(=O)c2cc3ccccc3o2)c(=O)n(-c2ccccc2)n1C | inactive
O=C(CCS(=O)(=O)c1ccccc1F)Nc1ccc(N2CCN(Cc3ccccc3)CC2)cc1 | inconclusive: 63.1 µM [inhibitor, single point]
CCOC(=O)c1c(C)[nH]c(C)c1S(=O)(=O)N1CCC(C(=O)N2CCN(c3cccc(C)c3)C(C)C2)CC1 (configuration not stated) | active: 79.4 µM
COc1ccc(Nc2ncccc2C(=O)Nc2ccccc2)cc1 | active: 50.1 µM
CNC(=S)N/N=C/c1cccc(OCc2ccccc2F)c1 | inconclusive: 89.1 µM [inhibitor, single point]
CC(=O)N1CCN(c2ccc(Nc3ncnc4c3oc3ccccc34)cc2)CC1 | inconclusive: 79.4 µM [inhibitor, single point]
O=C(C1=C(O)C(=O)N(CCc2ccccc2)C1c1cccs1)c1ccco1 (configuration not stated) | inconclusive: 79.4 µM [inhibitor, single point]
CC1CCCCN1S(=O)(=O)c1csc(C(N)=O)c1 (configuration not stated) | inconclusive: 56.2 µM [inhibitor, partial curve]
C=C1CCN(c2ccc(C(=O)NCc3ccc(C)cc3)cc2[N+](=O)[O-])CC1 | inconclusive: 39.8 µM [inhibitor, full curve, poor fit]
CCN(CC)c1ccc(NC(=O)c2cnccn2)cc1S(=O)(=O)Nc1ccc(OC)cc1 | inactive
Cc1ccc(S(=O)(=O)NC(=O)N2CCN(Cc3c(F)cccc3Cl)CC2)cc1 | inactive
Cc1c(N/N=C(\C#N)C(=O)c2ccccc2)c(=O)n(-c2ccccc2)n1C | active: 31.6 µM
COc1ccc(CCNc2oc(COc3ccc(Br)cc3)nc2C#N)cc1OC | inconclusive: 31.6 µM [inhibitor, full curve]
